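Protocol summary: plate cells (96-well), add compound at 5 concentrations, incubate 48 h, interpolate endpoints linearly. Here, GI50 denotes the concentration required for 50% inhibition of growth. At the TGI there is no net growth.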
Test system: NCI-H322M lung
Test: growth of human tumour cells (NCI), 48 h

| SMILES | GI50 | TGI |
| --- | --- | --- |
| O=C1NC(=NC23CC4CC(CC(C4)C2)C3)N/C1=C\c1ccc2ncoc2c1 | 0.309 µM | 18.6 µM |
| O=C(Nc1ccc(Cl)c([N+](=O)[O-])c1)Nc1ccc(Cl)c([N+](=O)[O-])c1 | 11.7 µM | 24.2 µM |
| Cn1nc(C(F)(F)F)cc1-c1cc(Cl)c(COc2ccc(Cl)cc2)c(-c2ccc(Cl)c(C(F)(F)F)c2)c1O | 2.88 µM | 10.9 µM |
